According to article PMC6570896:
No constants are given. Whether binding was seen depends on the method and setting. Some results given as binding are weak or reduced against the parent protein; the word gives no strength. For some assays here: Tags and fused reporters may be left off the sequences shown.

Sequences of proteins named here, by UniProt entry; tags and fusion partners are left off.
UniProt Q93ZX1: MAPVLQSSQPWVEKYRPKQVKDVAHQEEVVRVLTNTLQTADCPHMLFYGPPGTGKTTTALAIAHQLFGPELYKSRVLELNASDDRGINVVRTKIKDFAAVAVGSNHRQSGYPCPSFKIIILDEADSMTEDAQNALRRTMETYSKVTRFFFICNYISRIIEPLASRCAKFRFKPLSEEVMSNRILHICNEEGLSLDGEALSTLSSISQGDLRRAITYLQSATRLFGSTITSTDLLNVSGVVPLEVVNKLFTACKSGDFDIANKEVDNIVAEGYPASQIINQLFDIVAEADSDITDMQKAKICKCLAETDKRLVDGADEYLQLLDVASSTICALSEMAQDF
UniProt Q9FXM3: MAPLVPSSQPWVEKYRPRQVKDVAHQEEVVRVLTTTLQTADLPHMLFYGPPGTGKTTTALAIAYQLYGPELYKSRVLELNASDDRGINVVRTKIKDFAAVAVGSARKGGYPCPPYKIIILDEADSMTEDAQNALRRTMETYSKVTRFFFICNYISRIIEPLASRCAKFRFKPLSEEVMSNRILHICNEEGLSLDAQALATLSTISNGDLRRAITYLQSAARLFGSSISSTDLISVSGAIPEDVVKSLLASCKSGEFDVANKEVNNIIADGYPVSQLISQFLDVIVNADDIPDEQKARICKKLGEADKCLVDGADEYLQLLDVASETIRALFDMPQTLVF
UniProt Q9ZW35: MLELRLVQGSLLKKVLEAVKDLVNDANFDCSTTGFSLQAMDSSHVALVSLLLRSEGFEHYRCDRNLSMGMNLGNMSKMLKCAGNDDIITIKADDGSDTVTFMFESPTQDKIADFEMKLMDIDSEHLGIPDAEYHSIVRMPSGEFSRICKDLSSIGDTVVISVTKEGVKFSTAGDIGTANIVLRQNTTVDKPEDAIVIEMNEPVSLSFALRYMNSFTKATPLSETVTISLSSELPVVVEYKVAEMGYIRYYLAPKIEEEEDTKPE
UniProt P17070: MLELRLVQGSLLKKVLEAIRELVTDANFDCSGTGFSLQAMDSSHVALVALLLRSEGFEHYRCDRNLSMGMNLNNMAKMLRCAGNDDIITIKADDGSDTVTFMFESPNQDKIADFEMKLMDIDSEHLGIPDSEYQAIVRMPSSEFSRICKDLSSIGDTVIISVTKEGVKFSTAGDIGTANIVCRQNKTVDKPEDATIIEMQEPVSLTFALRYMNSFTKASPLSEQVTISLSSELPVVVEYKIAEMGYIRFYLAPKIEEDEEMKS
UniProt Q9M7Q7: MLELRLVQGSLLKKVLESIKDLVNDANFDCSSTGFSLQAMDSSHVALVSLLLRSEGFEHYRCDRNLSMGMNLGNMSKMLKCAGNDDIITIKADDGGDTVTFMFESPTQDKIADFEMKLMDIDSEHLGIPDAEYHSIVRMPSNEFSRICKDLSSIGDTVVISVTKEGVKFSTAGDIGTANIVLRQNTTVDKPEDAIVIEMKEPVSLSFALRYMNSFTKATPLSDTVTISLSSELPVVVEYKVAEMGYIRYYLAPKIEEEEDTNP

Legend:
Test in all cases: two-hybrid; Clontech system, yeast AH109; RFC subunits as BD fusions, PCNAs as AD fusions; growth on SD-Leu-Trp-His-Ade, 7 days at 28 °C
[1] = molecular target: T1, AtRFC1-BD (Arabidopsis thaliana) (UniProt Q9C587)
T1 sequence: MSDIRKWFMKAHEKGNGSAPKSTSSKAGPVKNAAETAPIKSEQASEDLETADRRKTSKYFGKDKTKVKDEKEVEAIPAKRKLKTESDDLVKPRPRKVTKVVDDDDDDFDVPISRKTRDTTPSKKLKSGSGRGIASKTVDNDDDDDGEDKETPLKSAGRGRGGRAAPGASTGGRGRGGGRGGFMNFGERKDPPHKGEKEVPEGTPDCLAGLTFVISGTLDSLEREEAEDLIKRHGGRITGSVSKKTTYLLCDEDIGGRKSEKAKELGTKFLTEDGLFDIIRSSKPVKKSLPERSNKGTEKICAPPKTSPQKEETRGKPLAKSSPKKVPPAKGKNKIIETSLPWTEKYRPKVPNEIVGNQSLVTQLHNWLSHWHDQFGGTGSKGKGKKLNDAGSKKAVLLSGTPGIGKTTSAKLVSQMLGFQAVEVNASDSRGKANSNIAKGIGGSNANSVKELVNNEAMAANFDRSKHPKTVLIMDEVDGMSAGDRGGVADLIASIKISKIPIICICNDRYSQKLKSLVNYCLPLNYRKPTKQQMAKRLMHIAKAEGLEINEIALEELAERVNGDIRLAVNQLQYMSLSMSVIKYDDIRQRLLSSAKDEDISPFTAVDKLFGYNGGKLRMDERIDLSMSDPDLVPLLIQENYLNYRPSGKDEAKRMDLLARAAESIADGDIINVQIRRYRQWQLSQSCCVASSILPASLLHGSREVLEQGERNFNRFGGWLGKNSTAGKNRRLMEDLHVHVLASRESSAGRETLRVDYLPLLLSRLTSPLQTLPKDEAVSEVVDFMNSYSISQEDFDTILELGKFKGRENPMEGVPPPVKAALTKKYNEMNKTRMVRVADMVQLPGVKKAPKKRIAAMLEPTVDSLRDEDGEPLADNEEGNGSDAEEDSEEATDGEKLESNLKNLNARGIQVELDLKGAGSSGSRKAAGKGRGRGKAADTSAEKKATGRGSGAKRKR

[2] = molecular target: T2, AtRFC2-BD (Arabidopsis thaliana) (UniProt Q9CAM7)
T2 sequence: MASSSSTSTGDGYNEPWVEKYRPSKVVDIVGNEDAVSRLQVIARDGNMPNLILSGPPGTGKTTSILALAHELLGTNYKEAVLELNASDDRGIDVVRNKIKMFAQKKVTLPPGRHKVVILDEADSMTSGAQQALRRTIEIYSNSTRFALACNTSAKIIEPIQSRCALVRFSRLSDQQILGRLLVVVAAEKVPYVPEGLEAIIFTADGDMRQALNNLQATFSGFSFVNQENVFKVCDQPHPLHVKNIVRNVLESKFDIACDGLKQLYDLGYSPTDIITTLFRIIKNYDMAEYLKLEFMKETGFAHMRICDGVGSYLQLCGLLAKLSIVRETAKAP

[3] = molecular target: AtRFC4-BD (Arabidopsis thaliana) (UniProt Q93ZX1)
[4] = molecular target: T3, OsRFC1-BD (rice (Oryza sativa)) (UniProt Q2R2B4)
T3 sequence: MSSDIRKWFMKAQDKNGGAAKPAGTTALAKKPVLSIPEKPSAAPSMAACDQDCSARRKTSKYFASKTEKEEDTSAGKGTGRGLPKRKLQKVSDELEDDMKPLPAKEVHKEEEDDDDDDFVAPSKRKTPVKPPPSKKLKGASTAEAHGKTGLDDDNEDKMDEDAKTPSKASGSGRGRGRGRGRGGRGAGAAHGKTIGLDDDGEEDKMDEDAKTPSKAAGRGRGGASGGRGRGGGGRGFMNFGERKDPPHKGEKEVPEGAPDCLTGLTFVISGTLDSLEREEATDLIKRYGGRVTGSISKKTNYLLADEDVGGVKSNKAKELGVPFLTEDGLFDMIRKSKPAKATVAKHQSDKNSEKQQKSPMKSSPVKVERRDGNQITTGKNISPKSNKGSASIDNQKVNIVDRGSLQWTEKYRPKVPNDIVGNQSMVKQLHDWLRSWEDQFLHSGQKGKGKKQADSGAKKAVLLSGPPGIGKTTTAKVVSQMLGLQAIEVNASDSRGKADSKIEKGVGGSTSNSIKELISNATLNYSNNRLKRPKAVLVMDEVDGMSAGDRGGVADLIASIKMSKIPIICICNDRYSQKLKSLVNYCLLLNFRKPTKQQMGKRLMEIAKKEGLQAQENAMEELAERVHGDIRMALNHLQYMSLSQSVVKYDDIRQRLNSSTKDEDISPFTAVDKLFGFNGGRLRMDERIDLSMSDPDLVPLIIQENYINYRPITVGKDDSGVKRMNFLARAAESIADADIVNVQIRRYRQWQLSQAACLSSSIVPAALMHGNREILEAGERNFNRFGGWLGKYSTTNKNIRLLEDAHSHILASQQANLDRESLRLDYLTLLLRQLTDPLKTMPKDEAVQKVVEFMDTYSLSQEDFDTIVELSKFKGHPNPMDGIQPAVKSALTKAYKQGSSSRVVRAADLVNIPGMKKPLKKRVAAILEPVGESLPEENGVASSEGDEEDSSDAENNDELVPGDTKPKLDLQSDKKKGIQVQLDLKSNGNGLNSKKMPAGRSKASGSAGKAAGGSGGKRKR

[5] = molecular target: OsRFC2-BD (rice (Oryza sativa)) (UniProt Q9FXM3)
[6] = molecular target: T4, OsRFC3-BD (rice (Oryza sativa)) (UniProt Q6YZ54)
T4 sequence: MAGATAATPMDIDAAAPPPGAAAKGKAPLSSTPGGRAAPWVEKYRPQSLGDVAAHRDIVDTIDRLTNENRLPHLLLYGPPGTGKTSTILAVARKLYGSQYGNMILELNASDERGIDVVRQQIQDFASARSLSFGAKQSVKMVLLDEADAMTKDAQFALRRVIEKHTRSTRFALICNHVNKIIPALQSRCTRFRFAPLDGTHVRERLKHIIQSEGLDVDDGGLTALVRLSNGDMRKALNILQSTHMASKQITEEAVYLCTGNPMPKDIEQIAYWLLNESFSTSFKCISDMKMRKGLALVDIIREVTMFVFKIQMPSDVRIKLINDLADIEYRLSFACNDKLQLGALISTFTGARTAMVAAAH

[7] = molecular target: T5, OsRFC4-BD (rice (Oryza sativa)) (UniProt Q7XRX1)
T5 sequence: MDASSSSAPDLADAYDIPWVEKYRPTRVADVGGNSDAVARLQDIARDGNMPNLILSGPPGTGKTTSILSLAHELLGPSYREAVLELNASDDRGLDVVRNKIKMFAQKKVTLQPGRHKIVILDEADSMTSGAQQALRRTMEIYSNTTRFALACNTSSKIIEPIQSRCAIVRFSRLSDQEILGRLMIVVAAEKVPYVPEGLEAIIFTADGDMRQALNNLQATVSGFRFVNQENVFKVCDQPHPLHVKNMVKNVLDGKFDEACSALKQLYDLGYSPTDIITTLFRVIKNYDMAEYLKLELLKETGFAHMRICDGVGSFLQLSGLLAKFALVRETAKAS

[8] = molecular target: T6, OsRFC5-BD (rice (Oryza sativa)) (UniProt Q852K3)
T6 sequence: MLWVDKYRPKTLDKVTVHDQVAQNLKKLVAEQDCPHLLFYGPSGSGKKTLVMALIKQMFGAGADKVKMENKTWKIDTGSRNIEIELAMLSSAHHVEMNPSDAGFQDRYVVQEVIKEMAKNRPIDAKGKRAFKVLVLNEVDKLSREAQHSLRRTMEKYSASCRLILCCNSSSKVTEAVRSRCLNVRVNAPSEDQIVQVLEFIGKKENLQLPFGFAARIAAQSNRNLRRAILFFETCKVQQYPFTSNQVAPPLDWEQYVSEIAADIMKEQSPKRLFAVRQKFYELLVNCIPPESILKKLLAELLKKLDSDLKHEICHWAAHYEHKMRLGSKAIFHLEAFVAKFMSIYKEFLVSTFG

Substance: AtPCNA2-AD (from UniProt Q9ZW35 1-264)
- binding [1]: no binding
- binding [2]: binds
- binding [3]: binds

Substance: OsPCNA-AD (from UniProt P17070 1-263)
- binding [4]: binds
- binding [5]: binds
- binding [6]: binds
- binding [7]: binds
- binding [8]: binds

Substance: AtPCNA1-AD (from UniProt Q9M7Q7 1-263)
- binding [1]: no binding
- binding [2]: binds
- binding [3]: binds
